Laboratory results from PubChem BioAssay (NCATS).
Inconclusive results, whose numbers are uncertain, are shown with a selection of clear calls. For some assays here: Potencies of inconclusive entries are doubtful fits and often do not repeat. The source made the active and inactive calls. Unless noted, the call rests on the fitted dose curve; in most records, active means well fitted curve in the direction sought with a large enough effect; inconclusive means small, poorly fitted or top-dose-only effect, or another doubt; inactive means no such curve, though single readings can be large; an effect the other way counts as inactive or inconclusive.

Experiments:
HaCat = experiment: Cytotoxic Profiling of Annotated Libraries Using Quantitative High-Throughput Screening (AID 1296008); conditions: Five cell lines viability, CellTiter-Glo ATP luminescence, 48-72 h; max response: hits give low values; further: nearly all actives have a fitted effect of over 60% in size
How it was run: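 Cells exposed to compounds for 48 or 72 hr at 37 degrees Celsius. Viability read as ATP-coupled luminescence with CellTiter-Glo after 10 min at room temperature.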

C33A = experiment: Primary qHTS to identify gynecologic anti-cancer compounds using libraries of approved drugs and bioactive compounds (AID 1345084); conditions: Gynecologic cancer cell panel viability, ATPlite luminescence, 48 h; series mostly up to 57.5 µM; further: nearly all actives have a fitted effect of over 55% in size
How it was run: (§1)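 Measured: luminescence after ATPlite addition (15 min, RT). Exposure: 48 h, 37 C, 5% CO2.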

Hek293T = experiment: as above; conditions: Gynecologic cancer cell panel viability, ATPlite luminescence, 48 h, control line for the selectivity index; series mostly up to 57.5 µM
How it was run: as §1

[1] = P-glycoprotein substrates identified in KB-8-5-11 adenocarcinoma cell line, qHTS therapeutic library screen (AID 1346987); conditions: activity change, negative = cytotoxicity: at 44.5 µM (top of the series); further: nearly all actives have a fitted effect of over 65% in size
How it was run: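 KB-8-5-11: colchicine-selected sub-line of KB-3-1 over-expressing P-gp; assay medium lacked colchicine. 72 h drug exposure at 37 degree C, CellTiter-Glo.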

[2] = tested on: Zika virus NS2B-NS3 protease (unlinked complex); experiment: Primary screen GU Rhodamine qHTS for Zika virus inhibitors: Unlinked NS2B-NS3 protease assay (AID 1347159); conditions: Recombinant ZIKV NS2B-NS3 protease, Rhodamine110 substrate fluorescence; series mostly up to 107 µM; further: nearly all actives have a fitted effect of over 60% in size
How it was run: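 Noncovalent NS2B hydrophilic domain/NS3 protease complex (25 nM final) in 10 mM Tris-HCl pH 8.0, 0.01% Tween 20, preincubated 15 min with compounds (up to 114 microM), then 1.5 microM Rhodamine110 substrate. Fluorescence change over 15 min fitted to 4-parameter Hill.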

[3] = Primary qHTS for inhibitors of nuclear receptor binding SET domain protein 2 (NSD2) in an isogenic RCH-ACV NSD2 p.E1099K mutant (9B) (AID 1645876); conditions: activity change, negative = viability loss: at 44.9 µM (top of the series) unless noted; further: nearly all actives have a fitted effect of over 70% in size
[4] = Primary qHTS for inhibitors of nuclear receptor binding SET domain protein 2 (NSD2) in an RCH-ACV wild type WT cells (2C) (AID 1645877); conditions: activity change, negative = cell killing: at 44.9 µM (top of the series) unless noted; further: nearly all actives have a fitted effect of over 70% in size
CAOV3 = experiment: Primary qHTS to identify gynecologic anti-cancer compounds using libraries of approved drugs and bioactive compounds (AID 1345084); conditions: Gynecologic cancer cell panel viability, ATPlite luminescence, 48 h; series mostly up to 57.5 µM; further: nearly all actives have a fitted effect of over 55% in size
How it was run: as §1

CASKI = experiment: as above; conditions: Gynecologic cancer cell panel viability, ATPlite luminescence, 48 h; series mostly up to 57.5 µM
How it was run: as §1

[5] = Primary fluorescence-based thiol-reactive (MSTI) qHTS assay for identification of artifact compounds. (AID 1845221);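 further: thiol-reactive compounds lower the probe fluorescence signal; nearly all actives have a fitted effect of over 65% in size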
How it was run: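 Reactivity toward the thiol probe MSTI (4 uM) is scored by fluorescence at Ex/Em 525/598 nm after 1 h at room temperature. Acetyl-MSTI and MSTI define the activity scale.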

SKOV3 = experiment: Primary qHTS to identify gynecologic anti-cancer compounds using libraries of approved drugs and bioactive compounds (AID 1345084); conditions: Gynecologic cancer cell panel viability, ATPlite luminescence, 48 h; series mostly up to 57.5 µM; further: nearly all actives have a fitted effect of over 55% in size
How it was run: as §1

PA-1 = experiment: as above; conditions: Gynecologic cancer cell panel viability, ATPlite luminescence, 48 h; series mostly up to 57.5 µM
How it was run: as §1

[6] = tested on: Zika virus NS2B-NS3 protease (linked construct); experiment: Primary screen NINDS Rhodamine qHTS for Zika virus inhibitors (AID 1347160); further: nearly all actives have a fitted effect of over 55% in size
How it was run: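 Purified NS2B-NS3 protease with the NS2B hydrophilic domain joined by a flexible linker (25 nM) in 10 mM Tris-HCl pH 8.0, 0.01% Tween 20, preincubated 15 min at RT with compound; Rhodamine110 peptide substrate 1.5 µM; fluorescence change over 15 min; 4-parameter Hill fit.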

[7] = target: Cytochrome P450 2D6 (Homo sapiens) (UniProt P10635); experiment: Cytochrome P450 family 2 subfamily D member 6 (CYP2D6) small molecule antagonists: luciferase biochemical (cell-free) qHTS assay (AID 1645840; active means well fitted curve in the direction sought with a large enough effect in the repeat runs; inconclusive means weak or mixed curves; inactive means no such curve, though single readings can be large; an effect the other way counts as inactive or inconclusive; further: nearly all actives have a fitted effect of over 55% in size)
UniProt P10635, sequence (P10635 whole entry, looked up): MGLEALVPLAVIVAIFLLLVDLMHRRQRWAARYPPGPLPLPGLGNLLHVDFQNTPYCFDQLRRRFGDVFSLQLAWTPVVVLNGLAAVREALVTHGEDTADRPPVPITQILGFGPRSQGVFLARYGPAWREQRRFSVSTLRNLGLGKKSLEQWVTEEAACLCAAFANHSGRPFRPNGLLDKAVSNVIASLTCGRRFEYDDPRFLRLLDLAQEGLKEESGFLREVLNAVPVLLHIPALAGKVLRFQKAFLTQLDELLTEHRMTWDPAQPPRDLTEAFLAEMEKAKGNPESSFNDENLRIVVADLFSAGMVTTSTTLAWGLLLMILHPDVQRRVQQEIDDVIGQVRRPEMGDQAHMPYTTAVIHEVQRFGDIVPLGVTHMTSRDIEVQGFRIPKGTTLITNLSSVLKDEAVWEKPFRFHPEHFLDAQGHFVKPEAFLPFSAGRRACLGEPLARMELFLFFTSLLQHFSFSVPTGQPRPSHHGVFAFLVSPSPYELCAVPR
How it was run: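 P450-Glo luminescent screen: recombinant CYP2D6 enzyme–proluciferin substrate mix preincubated with compound 10 min at room temperature, then NADPH regeneration added for 1 h at room temperature. Detection reagent added for 20 min; luciferin light read as relative luminescence units.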

Tov-21-G = experiment: Primary qHTS to identify gynecologic anti-cancer compounds using libraries of approved drugs and bioactive compounds (AID 1345084); conditions: Gynecologic cancer cell panel viability, ATPlite luminescence, 48 h; series mostly up to 57.5 µM; further: nearly all actives have a fitted effect of over 55% in size
How it was run: as §1

JEG-3 = experiment: as above; conditions: Gynecologic cancer cell panel viability, ATPlite luminescence, 48 h; series mostly up to 57.5 µM
How it was run: as §1

Tov112D = experiment: as above; conditions: Gynecologic cancer cell panel viability, ATPlite luminescence, 48 h; series mostly up to 57.5 µM
How it was run: as §1

OV90 = experiment: as above; conditions: Gynecologic cancer cell panel viability, ATPlite luminescence, 48 h; series mostly up to 57.5 µM
How it was run: as §1

Measured: Potency
Potency means the concentration at half of the fitted maximal effect; tags describe the fitted curve by direction and shape.

O=C1CC2(CCCC2)[C@H](O)C(=O)N1CCCCN1CCN(c2ncccn2)CC1
inactive: C33A | Hek293T
inconclusive: HaCat 8.2 µM [inhibitor, partial curve, poor fit]

COC(=O)c1ccccc1O[C@@H]1O[C@H](CO[C@@H]2OC[C@@H](O)[C@H](O)[C@H]2O)[C@@H](O)[C@H](O)[C@H]1O
inactive: [1] | [3] | [4] | HaCat | CAOV3 | CASKI | Hek293T
inconclusive: [2] 28.2 µM [inhibitor, partial curve]

CC1(C)CC2C=C(C(=O)O)C3COC(=O)C(O)(CO)C23C1 (stereo not drawn)
inconclusive: [5] 10.6 µM [inhibitor, partial curve] | HaCat 7.31 µM [inhibitor, partial curve]
inactive: [1] | [4] | C33A

COc1ccc(CCO[C@@H]2CCCC[C@H]2N2CC[C@@H](O)C2)cc1OC
inconclusive: HaCat 29.1 µM [inhibitor, single point] | SKOV3 = 7.08 µM [rising, single point]
inactive: [1] | [4] | [5] | CAOV3 | CASKI

O=C(O)C1CN(Cc2ccc(-c3nc4cc(Cc5ccccc5F)ccc4s3)c(F)c2)C1
inconclusive: [2] 3.98 µM [inhibitor, full curve] | [5] 0.77 µM [inhibitor, full curve, poor fit] | CAOV3 = 0.631 µM [rising, partial curve, poor fit] | CASKI 6.31 µM [rising, single point] | PA-1 = 3.55 µM [rising, partial curve, poor fit] | SKOV3 = 2.82 µM [rising, partial curve]
inactive: HaCat

Cc1onc(-c2c(Cl)cccc2Cl)c1C(=O)N[C@@H]1C(=O)N2[C@@H]1SC(C)(C)[C@@H]2C(=O)O
inconclusive: [2] 50.1 µM [inhibitor, partial curve] | [6] 39.8 µM [inhibitor, single point] | HaCat 33.5 µM [inhibitor, single point]
inactive: C33A | PA-1

Cc1onc(-c2c(F)cccc2Cl)c1C(=O)N[C@@H]1C(=O)N2[C@@H]1SC(C)(C)[C@@H]2C(=O)O
inconclusive: HaCat 0.116 µM [inhibitor, full curve, poor fit] | C33A 6.31 µM [cytotoxic, single point]
inactive: [1] | [4] | Hek293T | SKOV3

C[C@H](NC(c1cccc(C[P+](=O)O)c1)[C@H](C)O)c1ccc(Cl)c(Cl)c1 (stereo partly drawn)
inconclusive: HaCat 29.1 µM [inhibitor, single point] | CAOV3 = 39.8 µM [rising, single point]

O=C(Nc1c(-c2cccs2)nc2ccccn12)c1ccc(Cl)cc1
inactive: [4] | HaCat | C33A
inconclusive: [7] 26.8 µM [inhibitor, single point] | SKOV3 = 2.82 µM | Tov-21-G 28.2 µM [rising, single point]

CCCN1CCC(c2cccc(S(C)(=O)=O)c2)CC1
inconclusive: HaCat 29.1 µM [inhibitor, single point] | CAOV3 = 25.1 µM [cytotoxic, single point] | CASKI 39.8 µM [cytotoxic, single point] | JEG-3 = 35.5 µM [cytotoxic, single point] | PA-1 = 39.8 µM [cytotoxic, single point] | SKOV3 = 39.8 µM [cytotoxic, single point] | Tov-21-G 39.8 µM [cytotoxic, single point] | Tov112D 39.8 µM [cytotoxic, single point]
active: [7] 8.49 µM

C[C@H](Oc1ccc(S(C)(=O)=O)cc1C(=O)N1CCN(c2ncc(C(F)(F)F)cc2F)CC1)C(F)(F)F
inactive: CASKI | Hek293T | OV90
inconclusive: [1] 5.8 µM [inhibitor, partial curve, poor fit] | [6] 50.1 µM [inhibitor, partial curve, poor fit] | [7] 21.3 µM [inhibitor, single point] | [3] 18.3 µM [inhibitor, single point] | [4] 18.3 µM [inhibitor, single point] | HaCat 3.66 µM [inhibitor, full curve] | CAOV3 = 0.316 µM [rising, partial curve, poor fit]
